{"source": "a compilation of properties of binary mixtures (doi:10.1021/acs.jced.9b01103)", "experiment": "xn = mol fraction of the nth substance listed", "settings": "96.7 kPa", "note": "The densities may have been worked out from excess volumes.", "data": [{"smiles": "CS(C)=O", "note": "+ CC(=O)[O-].CCCC[n+]1ccn(C)c1", "values": [{"measurement": "mass density", "setting": "303.15 K, x2 = 0", "value": 1090.3, "unit": "kg/m3"}, {"measurement": "mass density", "setting": "308.15 K, x2 = 0", "value": 1085.3, "unit": "kg/m3"}, {"measurement": "mass density", "setting": "313.15 K, x2 = 0", "value": 1080.3, "unit": "kg/m3"}, {"measurement": "mass density", "setting": "318.15 K, x2 = 0", "value": 1075.3, "unit": "kg/m3"}, {"measurement": "mass density", "setting": "323.15 K, x2 = 0", "value": 1070.4, "unit": "kg/m3"}, {"measurement": "mass density", "setting": "328.15 K, x2 = 0", "value": 1065.4, "unit": "kg/m3"}, {"measurement": "mass density", "setting": "333.15 K, x2 = 0", "value": 1060.4, "unit": "kg/m3"}, {"measurement": "mass density", "setting": "343.15 K, x2 = 0", "value": 1050.3, "unit": "kg/m3"}, {"measurement": "mass density", "setting": "348.15 K, x2 = 0", "value": 1045.4, "unit": "kg/m3"}]}, {"smiles": "CC(=O)[O-].CCCC[n+]1ccn(C)c1", "note": "+ CS(C)=O", "values": [{"measurement": "mass density", "setting": "303.15 K, x1 = 0.21", "value": 1075.7, "unit": "kg/m3"}, {"measurement": "mass density", "setting": "303.15 K, x1 = 0.285", "value": 1072.2, "unit": "kg/m3"}, {"measurement": "mass density", "setting": "303.15 K, x1 = 0.369", "value": 1068.2, "unit": "kg/m3"}, {"measurement": "mass density", "setting": "303.15 K, x1 = 0.478", "value": 1062.9, "unit": "kg/m3"}, {"measurement": "mass density", "setting": "303.15 K, x1 = 0.606", "value": 1057.7, "unit": "kg/m3"}, {"measurement": "mass density", "setting": "303.15 K, x1 = 0.789", "value": 1051.8, "unit": "kg/m3"}, {"measurement": "mass density", "setting": "303.15 K, x1 = 0.884", "value": 1049.1, "unit": "kg/m3"}, {"measurement": "mass density", "setting": "303.15 K, x1 = 1", "value": 1046.3, "unit": "kg/m3"}, {"measurement": "mass density", "setting": "308.15 K, x1 = 0.285", "value": 1068.3, "unit": "kg/m3"}, {"measurement": "mass density", "setting": "308.15 K, x1 = 0.369", "value": 1064.5, "unit": "kg/m3"}, {"measurement": "mass density", "setting": "308.15 K, x1 = 0.478", "value": 1059.4, "unit": "kg/m3"}, {"measurement": "mass density", "setting": "308.15 K, x1 = 0.606", "value": 1054.4, "unit": "kg/m3"}, {"measurement": "mass density", "setting": "308.15 K, x1 = 0.789", "value": 1048.7, "unit": "kg/m3"}, {"measurement": "mass density", "setting": "308.15 K, x1 = 0.884", "value": 1046, "unit": "kg/m3"}, {"measurement": "mass density", "setting": "308.15 K, x1 = 1", "value": 1043.3, "unit": "kg/m3"}, {"measurement": "mass density", "setting": "313.15 K, x1 = 0.21", "value": 1067.5, "unit": "kg/m3"}, {"measurement": "mass density", "setting": "313.15 K, x1 = 0.285", "value": 1064.5, "unit": "kg/m3"}, {"measurement": "mass density", "setting": "313.15 K, x1 = 0.369", "value": 1060.9, "unit": "kg/m3"}, {"measurement": "mass density", "setting": "313.15 K, x1 = 0.478", "value": 1055.9, "unit": "kg/m3"}, {"measurement": "mass density", "setting": "313.15 K, x1 = 0.606", "value": 1051.1, "unit": "kg/m3"}, {"measurement": "mass density", "setting": "313.15 K, x1 = 0.789", "value": 1045.5, "unit": "kg/m3"}, {"measurement": "mass density", "setting": "313.15 K, x1 = 0.884", "value": 1043, "unit": "kg/m3"}, {"measurement": "mass density", "setting": "313.15 K, x1 = 1", "value": 1040.3, "unit": "kg/m3"}, {"measurement": "mass density", "setting": "318.15 K, x1 = 0.285", "value": 1060.4, "unit": "kg/m3"}, {"measurement": "mass density", "setting": "318.15 K, x1 = 0.369", "value": 1057.2, "unit": "kg/m3"}, {"measurement": "mass density", "setting": "318.15 K, x1 = 0.478", "value": 1052.4, "unit": "kg/m3"}, {"measurement": "mass density", "setting": "318.15 K, x1 = 0.789", "value": 1042.4, "unit": "kg/m3"}, {"measurement": "mass density", "setting": "318.15 K, x1 = 1", "value": 1037.4, "unit": "kg/m3"}, {"measurement": "mass density", "setting": "323.15 K, x1 = 0.21", "value": 1059.4, "unit": "kg/m3"}, {"measurement": "mass density", "setting": "323.15 K, x1 = 0.369", "value": 1053.6, "unit": "kg/m3"}, {"measurement": "mass density", "setting": "323.15 K, x1 = 0.478", "value": 1048.9, "unit": "kg/m3"}, {"measurement": "mass density", "setting": "323.15 K, x1 = 0.606", "value": 1044.4, "unit": "kg/m3"}, {"measurement": "mass density", "setting": "323.15 K, x1 = 0.789", "value": 1039.2, "unit": "kg/m3"}, {"measurement": "mass density", "setting": "323.15 K, x1 = 0.884", "value": 1036.8, "unit": "kg/m3"}, {"measurement": "mass density", "setting": "323.15 K, x1 = 1", "value": 1034.4, "unit": "kg/m3"}, {"measurement": "mass density", "setting": "328.15 K, x1 = 0.21", "value": 1055.3, "unit": "kg/m3"}, {"measurement": "mass density", "setting": "328.15 K, x1 = 0.369", "value": 1050, "unit": "kg/m3"}, {"measurement": "mass density", "setting": "328.15 K, x1 = 0.478", "value": 1045.4, "unit": "kg/m3"}, {"measurement": "mass density", "setting": "328.15 K, x1 = 0.789", "value": 1036.1, "unit": "kg/m3"}, {"measurement": "mass density", "setting": "328.15 K, x1 = 0.884", "value": 1033.8, "unit": "kg/m3"}, {"measurement": "mass density", "setting": "328.15 K, x1 = 1", "value": 1031.4, "unit": "kg/m3"}, {"measurement": "mass density", "setting": "333.15 K, x1 = 0.21", "value": 1051.2, "unit": "kg/m3"}, {"measurement": "mass density", "setting": "333.15 K, x1 = 0.369", "value": 1046.3, "unit": "kg/m3"}, {"measurement": "mass density", "setting": "333.15 K, x1 = 0.478", "value": 1042, "unit": "kg/m3"}, {"measurement": "mass density", "setting": "333.15 K, x1 = 0.606", "value": 1037.8, "unit": "kg/m3"}, {"measurement": "mass density", "setting": "333.15 K, x1 = 0.789", "value": 1033, "unit": "kg/m3"}, {"measurement": "mass density", "setting": "333.15 K, x1 = 0.884", "value": 1030.8, "unit": "kg/m3"}, {"measurement": "mass density", "setting": "333.15 K, x1 = 1", "value": 1028.5, "unit": "kg/m3"}, {"measurement": "mass density", "setting": "338.15 K, x1 = 0.21", "value": 1047.1, "unit": "kg/m3"}, {"measurement": "mass density", "setting": "338.15 K, x1 = 0.285", "value": 1045.1, "unit": "kg/m3"}, {"measurement": "mass density", "setting": "338.15 K, x1 = 0.369", "value": 1042.7, "unit": "kg/m3"}, {"measurement": "mass density", "setting": "338.15 K, x1 = 0.478", "value": 1038.5, "unit": "kg/m3"}, {"measurement": "mass density", "setting": "338.15 K, x1 = 0.606", "value": 1034.5, "unit": "kg/m3"}, {"measurement": "mass density", "setting": "338.15 K, x1 = 0.884", "value": 1027.8, "unit": "kg/m3"}, {"measurement": "mass density", "setting": "338.15 K, x1 = 1", "value": 1025.6, "unit": "kg/m3"}, {"measurement": "mass density", "setting": "343.15 K, x1 = 0.285", "value": 1041.2, "unit": "kg/m3"}, {"measurement": "mass density", "setting": "343.15 K, x1 = 0.478", "value": 1035.1, "unit": "kg/m3"}, {"measurement": "mass density", "setting": "343.15 K, x1 = 0.606", "value": 1031.2, "unit": "kg/m3"}, {"measurement": "mass density", "setting": "343.15 K, x1 = 0.789", "value": 1026.8, "unit": "kg/m3"}, {"measurement": "mass density", "setting": "348.15 K, x1 = 0.21", "value": 1038.9, "unit": "kg/m3"}, {"measurement": "mass density", "setting": "348.15 K, x1 = 0.285", "value": 1037.4, "unit": "kg/m3"}, {"measurement": "mass density", "setting": "348.15 K, x1 = 0.369", "value": 1035.5, "unit": "kg/m3"}, {"measurement": "mass density", "setting": "348.15 K, x1 = 0.478", "value": 1031.7, "unit": "kg/m3"}, {"measurement": "mass density", "setting": "348.15 K, x1 = 0.606", "value": 1027.9, "unit": "kg/m3"}, {"measurement": "mass density", "setting": "348.15 K, x1 = 0.789", "value": 1023.7, "unit": "kg/m3"}, {"measurement": "mass density", "setting": "348.15 K, x1 = 0.884", "value": 1021.8, "unit": "kg/m3"}, {"measurement": "mass density", "setting": "348.15 K, x1 = 1", "value": 1019.8, "unit": "kg/m3"}]}]}
